Experimental data as given in the supplement of paper PMC11417369.
Some of the results follow.

Test system: PfAP2-HC AP2 domain (GST-tagged)
Assay: gcPBM binding intensity (ln(normalized median fluorescence intensity)); higher = stronger DNA binding
How it was run: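 For binding intensity, the highest Masliner-normalised natural-log median intensity across replicate spots of either probe orientation was taken. Protein bound to the array was stained with Alexa488 anti-GST antibody and scanned at 488 nm. The protein, GST-tagged P. falciparum DNA-binding domains from E. coli at about 25 μg on average, had been applied for 1 h to an Agilent 4 × 180k array of primer-extended double-stranded 36-bp intergenic genomic probes and negative controls.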

Sequence	gcPBM binding intensity (ln)
ATTTTATAAAGGAAGTGTACTAATAAATTCAAATTA [XGTACX_site3922]	9.34
AAGAAAAAATATACTTCACACATTTAATATATAATT [CACACA_site4919]	9.61
AAAAAAAAAAAAAAATGTACAAATATATACATATAT [XGTACX_site935]	9.59
AAAAAAGAATTGTGCACACACAAAAAATGTTCATAA [CACACA_site1103]	10.2
TCGATGTTGGTAGGATGTACGGTACCGGTAGTATTT [XGTACX_site4214]	9.66
AAAATAAACTATAGTACACACTTATTATTATGAAAT [CACACA_site5488]	9.85
GATATATTTTATATATGTACATACAAGGGTAAATAT [XGTACX_site1202]	9.68
TCAATTAGACGAAAATGTACATATGTATATATTTTT [XGTACX_site5027]	9.62
AAAATATGTAGCTACACACACATAAACAAAATAACA [CACACA_site1007]	10.1
GAAAACAAAATGGTAACACACAAATGTAAATAGTAT [CACACA_site2113]	10
AAAATAAATAAATACACACACACGAATATTTATATA [CACACA_site6892]	10.6
ATTATAAAAATATCGTGTACATATTTTTTAAAATAA [XGTACX_site5072]	9.34
AAAAAAAAAAAAAAAAGTACACATCATTTTATGAAA [XGTACX_site1402]	9.43
ATTATTTCAATTTTTTTTGTTTTTAAAAAAAAAAAT [CACACA_negctrl_site1387]	9.25
TAGTAGTTATCATTAACATGCAATAATATTATTTAA [TGCATGCA_site178]	9.45
AAGTTAGGATAGATCCAATAATTTTTAGTTTCTCTT [GTGCAC_negctrl_site272]	9.45
ATGAACATATTTTTTTGTACTTATGAAAATATGTTA [XGTACX_site5996]	9.44
AAAAAAAAAAAAAAAAGTACTCTATAAGTAACATTT [XGTACX_site6973]	9.44
ATTTTTTTGTTATTGTTGAAAAGATGGTTCTTTTTT [CACACA_negctrl_site1346]	9.52

Sequence	gcPBM binding intensity (ln)
AATTTCTTATTTTGTACACACAATAAATATTCACAT [CACACA_site1612]	10
AAAATAAGAAAACAAATGCACACCATTTATATAGAT [CACACA_site1055]	10.1
TATATAATAAGAAAATATGTGCGTAGTTCAGCAAAA [XGTACX_negctrl_site304]	9.88
AATTGGATAAACCAATTGGATTATAATACGATATAT [CACACA_negctrl_site275]	9.66
GAAAAATATATTCTGGTGCATGAATAAAATCATAAA	9.52
ATATATATATATATATGTACATAATTAATAGCATAT [XGTACX_site1428]	9.86
GAAAAAGATGCGCATACACACAGATGAATAACAAAA [CACACA_site1628]	10.2
ATCATATTTATGTTGGTGCATTATACATAAAGTTTA [GTGCAC_site9574]	9.56
TGTCTTATTTATATTACACACTATATGAAAAAATAT [CACACA_site6807]	9.58
TATTCATCACTTTTTTGTACTTATGGATAAAATTTT [XGTACX_site3349]	9.62
AAAGGATATATCCAGAGTACATATTCTGTGTAATAC [XGTACX_site1547]	9.78
CACAAAAAAAATTATACACACACACCCATATATATA [CACACA_site8255]	10.3
ATAATTGTTTCTTTCTCCTTTTTATTTCATTTTAAA [CACACA_negctrl_site964]	9.64
AATAAATACTAAATGGTGCAAAATTTTTTAACACTG	9.63
TTTCAAAAATGAGTTACACACACACCGATATATATA [CACACA_site5263]	10.4
AGCCACCATATTTACACACACATCAAAATGTATTAA [CACACA_site1816]	10.2
TATATATATTATAGATGTACTTTCATATATATGTTT [XGTACX_site8189]	9.79
TAAATATAATCTAAATGTACATGACATAATTTTTTT [XGTACX_site2856]	9.56
TAAAATATTTTTTGTAGTACCTTAATATTTTTGAAG [XGTACX_site3048]	9.21

Sequence	gcPBM binding intensity (ln)
GTGTAATATGAAATGTGTACACACGCACACACAAAA [XGTACX_site6180]	10.7
TATTTATTTATGTACGCACACAGTTGATATTAATTC [CACACA_site2754]	9.94
ATGTATATTTTTAAAAGTACAGAATTTTCATATGAA [XGTACX_site5754]	9.55
ATATACAATACAAAAACACACACAAAAAAAGAAAAG [CACACA_site8668]	10.4
ATAGTATCTGGTAGCTGTACGAGTCGTAGAGTCTAA [XGTACX_site2539]	9.49
AGATATATATATAGGTGTACTGGAATGAAATTGTTT [XGTACX_site8200]	9.89
ATGATAATTATTAAGGGTACATAAAAATATATCTAT [XGTACX_site8969]	9.62
TATAATTATTTTTTCACACATATGTATTTATATATA [CACACA_site4205]	9.86
ATTATTTAACATGTGGACACAAAAATTTAAGGGTTC [CACACA_negctrl_site1269]	9.69
TACTAAGAAAAGAACTGTACATAGAATATACCCAAG [XGTACX_site4757]	9.64
AATATCAAAAAAAAAAAAAAAAAAAAAAAAAAAAAA [CACACA_negctrl_site288]	8.88
AATATATTAAATATTACACACATACATTTAGTGGAA [CACACA_site8609]	9.78
TAGTATTATTTTTTTTGTACATATAAATGTAAAATA [XGTACX_site5282]	9.39
AAAACATAAATACATACACACATAATATATATTAAG [CACACA_site4239]	10.3
TTTTTTTAAAATATGAGTACATAATATTGTAAAAAT [XGTACX_site6536]	9.33
CTTGGTAGTTTTTTCTTATAATCTAATTATTAATAA [CACACA_negctrl_site153]	9.56
ATATATTAATATGTGTGTACTTAACCATTCATATGT [XGTACX_site7395]	9.96
TTAATATATAATAAATTTTTTTTTTTTTTTTTTTTT [CACACA_negctrl_site892]	9.35
